This note sets out measurements from PMC4336329 (PLoS ONE, 2015).

Hit rate of the full screen: of about 310,000 compounds, about 14,000 (4.5%) showed an effect of 50% or more. The effect is printed as a negative number. This is one part of the list.
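Note: peak tail current of the secondary pulse compared with the same well before compound.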

Chain of human ether-à-go-go-related gene (hERG) potassium channel (Q12809 whole entry, looked up): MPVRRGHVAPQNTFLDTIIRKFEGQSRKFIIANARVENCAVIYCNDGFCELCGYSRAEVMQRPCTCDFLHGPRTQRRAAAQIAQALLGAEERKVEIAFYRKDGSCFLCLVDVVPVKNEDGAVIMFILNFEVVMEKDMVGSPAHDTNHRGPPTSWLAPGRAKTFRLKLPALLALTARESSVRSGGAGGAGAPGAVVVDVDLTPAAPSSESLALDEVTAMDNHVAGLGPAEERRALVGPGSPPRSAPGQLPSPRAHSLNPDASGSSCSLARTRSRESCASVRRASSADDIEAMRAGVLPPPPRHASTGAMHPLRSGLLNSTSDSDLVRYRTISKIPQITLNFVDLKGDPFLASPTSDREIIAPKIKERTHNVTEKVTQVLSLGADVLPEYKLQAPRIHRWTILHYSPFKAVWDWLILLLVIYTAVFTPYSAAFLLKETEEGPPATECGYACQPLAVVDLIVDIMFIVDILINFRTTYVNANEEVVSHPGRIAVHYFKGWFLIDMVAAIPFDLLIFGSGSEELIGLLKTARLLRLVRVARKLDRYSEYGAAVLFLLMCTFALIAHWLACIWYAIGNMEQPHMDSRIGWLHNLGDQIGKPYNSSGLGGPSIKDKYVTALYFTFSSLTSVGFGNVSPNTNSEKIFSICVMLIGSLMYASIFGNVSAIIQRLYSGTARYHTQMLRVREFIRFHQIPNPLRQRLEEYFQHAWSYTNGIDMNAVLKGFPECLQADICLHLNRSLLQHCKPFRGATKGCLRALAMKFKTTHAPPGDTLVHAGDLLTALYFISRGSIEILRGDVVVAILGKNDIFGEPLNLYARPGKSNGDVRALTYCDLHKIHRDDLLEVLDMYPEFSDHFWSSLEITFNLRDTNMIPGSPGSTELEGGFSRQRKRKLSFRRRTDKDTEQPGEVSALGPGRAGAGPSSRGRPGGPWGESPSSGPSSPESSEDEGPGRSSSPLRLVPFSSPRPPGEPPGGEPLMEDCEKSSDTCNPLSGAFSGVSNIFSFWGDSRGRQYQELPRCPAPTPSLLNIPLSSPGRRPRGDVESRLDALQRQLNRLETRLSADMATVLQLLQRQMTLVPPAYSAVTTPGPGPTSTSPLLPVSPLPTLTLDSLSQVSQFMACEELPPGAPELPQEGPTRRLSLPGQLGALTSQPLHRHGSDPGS

This assay addresses human ether-à-go-go-related gene (hERG) potassium channel (human, UniProt Q12809). In words: primary screen, population patch clamp on CHO cells stably expressing hERG.
For `CC(=O)NCCc1nc2ccccc2n1Cc1ccccc1`, the “hERG current change (%, negative = inhibition) at 10uM” value was found to be 1.05%.
The figure for `CCOc1ccc(S(=O)(=O)N(CC(N)=O)c2ccc(C)cc2)cc1` is 3.12%; for `CS(=O)(=O)c1ccc(C(=O)OCC(=O)NC2CCS(=O)(=O)C2)cc1[N+](=O)[O-]` (stereo not shown) it is 10.3%; for `CC(C)[C@H](NC(=O)c1ccco1)C(=O)OCC(=O)N1CCc2ccccc21` it is -13.8%.
As for `O=C(O)c1ccc(CS(=O)(=O)c2c(Cl)cccc2Cl)o1`, the “hERG current change (%, negative = inhibition) at 10uM” value amounted to 19%.
Regarding `Cn1c(=O)n(C)c2cc([N+](=O)[O-])c(N3CCN(CCO)CC3)cc21`, the “hERG current change (%, negative = inhibition) at 10uM” value was 24.9%.
The figure for `CC1CC1C(=O)OCC(=O)NNC(=O)c1ccc([N+](=O)[O-])cc1` (stereo not shown) is -2.32%; for `COc1ccc(OC)c(/C=N/N(CCC#N)C2=NS(=O)(=O)c3ccccc32)c1` it is 6.86%; for `CCOc1cc(S(=O)(=O)NCc2ccc(OC)cc2)c(OCC)cc1-n1cnnn1` it is -8.35%.
For the compound `CC(C)NC(=O)c1cc(-c2cccs2)on1`, the “hERG current change (%, negative = inhibition) at 10uM” value was -4.89%.
Then `COC(=O)COc1ccc(S(=O)(=O)N2CCc3ccccc3C2)cc1C`, with -4.79%.
`Cl.Clc1ccc(-c2ccc(CNCC3CCCO3)o2)cc1` (stereo not shown): the “hERG current change (%, negative = inhibition) at 10uM” value is on record as -62.4%.
Then `CSc1cccc(CN2CCC(n3nccc3NC(=O)C3CC3)CC2)c1`, with -51.4%; and `CCCCCCn1c(N2CCN(c3cccc(Cl)c3)CC2)nc2c1c(=O)[nH]c(=O)n2C`, with -11.7%.
As for `COc1ccc(-c2ccc3ccccc3n2)cc1OC`, the “hERG current change (%, negative = inhibition) at 10uM” value came out at 3.24%.
In the case of `CCCn1nc(C(=O)Nc2cccc(C(=O)OC)c2)c2ccccc2c1=O`, the “hERG current change (%, negative = inhibition) at 10uM” value was -11.3%.
Then `Cc1ccc(OCC(=O)Oc2c(C)cccc2C)cc1`, with 16.8%.
The figure for `Cc1ccc(C(=O)NN2C(=O)/C(=C/c3cn(C)c4ccccc34)SC2=S)cc1` is 13.6%.
For `N#Cc1cc2ccccc2nc1SCc1ccccn1`, the “hERG current change (%, negative = inhibition) at 10uM” value is reported as -5.4%.
For `COc1cc(OC)cc(C(=O)Nc2ccc(S(=O)(=O)N3CCOCC3)cc2)c1`, the “hERG current change (%, negative = inhibition) at 10uM” value stood at 5.74%.
As for `COCCN(C(=O)COC(=O)CCC(=O)c1ccc(Cl)cc1)c1c(N)n(Cc2ccccc2)c(=O)[nH]c1=O`, the “hERG current change (%, negative = inhibition) at 10uM” value was -1.48%.
Turning to `CC(=O)c1cccc(NC(=O)CSc2ccc(-c3ccco3)nn2)c1`, the “hERG current change (%, negative = inhibition) at 10uM” value came out at 1.79%.
The figure for `Br.c1ccc(CN2CCC(N=C3NN=C(c4ccc5c(c4)OCCO5)CS3)CC2)cc1` is -43.1%; for `CN(CC(=O)N1CCN(c2ccccc2F)CC1)S(=O)(=O)c1cnc[nH]1` it is 8.33%.
For the compound `COc1cccc(-c2c(C(=O)N/N=C/c3ccc(C)s3)nnn2-c2nonc2N)c1`, the “hERG current change (%, negative = inhibition) at 10uM” value came to 3.44%.
Regarding `Oc1cc2c(cc1O)CN(C(=S)NCCc1ccc(Cl)cc1)CCC2`, the “hERG current change (%, negative = inhibition) at 10uM” value is -28.3%.
Then `Cc1cc2[nH]c(=O)c(=O)[nH]c2cc1S(=O)(=O)N1CCN(c2cccc(C)c2C)CC1`, with -3.62%; and `CCCc1cc(C(=O)N2CCCC(C(=O)c3cccc4ccccc34)C2)n(C)n1` (stereo not shown), with 15.3%.
Turning to `C/C(=N/NC(=O)c1cccs1)c1ccc(NC(=O)COc2ccc(Cl)cc2Cl)cc1`, the “hERG current change (%, negative = inhibition) at 10uM” value worked out at 7.36%.
`CCOC(=O)CNC(=O)CSc1ncnc2c1cnn2Cc1ccccc1`: the “hERG current change (%, negative = inhibition) at 10uM” value came to 2.07%.
For the compound `Cc1nc(-c2ccc(NC(=O)c3ccccc3C)cc2)cs1`, the “hERG current change (%, negative = inhibition) at 10uM” value was 4.58%.
In the case of `CN(CCOc1ccc(Cl)cc1)C(=O)Cc1ccc(S(=O)(=O)N2CCOCC2)s1`, the “hERG current change (%, negative = inhibition) at 10uM” value is listed as -73.1%.
On to `CCCn1c(=O)[nH]c(=O)c2c1nc(-c1ccc(OC(F)(F)C(F)C(F)(F)F)cc1)n2CCOC` (stereo not shown), for which the “hERG current change (%, negative = inhibition) at 10uM” value was -21.5%.
Then `CCC(Nc1ccc(OC)cc1)C(=O)N/N=C/c1ccc([N+](=O)[O-])cc1` (stereo not shown), with -33.3%.
The figure for `COc1ccc(OC)c(NC(=S)NCCSc2ccc(C)cc2)c1` is -2.84%.
In the case of `COc1ccc(-c2nc3c(c(SCC(=O)Nc4cccc(O)c4)n2)Cc2c(CO)cnc(C)c2O3)cc1`, the “hERG current change (%, negative = inhibition) at 10uM” value is recorded as 18.7%.
The figure for `COc1ccc(OC)c(NC(=O)COC(=O)c2nc(Cl)ccc2Cl)c1` is 10.7%; for `Nc1nnc(SCc2cccc(C(F)(F)F)c2)s1` it is 8.89%.
On to `COc1ccc2[nH]c3c(c2c1)CCN1C(=O)N([C@@H](C)C(=O)NC2CCCC2)C(=O)[C@]31C`, for which the “hERG current change (%, negative = inhibition) at 10uM” value is -16.4%.
Consider `COc1ccc2cc3cc(C(=O)N4CCCCCC4)oc3nc2c1`, for which the “hERG current change (%, negative = inhibition) at 10uM” value stood at 5.99%.
Then `COC(=O)c1c(C)oc2ccc(NS(=O)(=O)c3cccs3)cc12`, with -2.42%.
The figure for `O=C(Nc1ccc2nc(-c3ccco3)c(-c3ccco3)nc2c1)N1CCCCCC1` is 11.8%.
The figure for `O=S(=O)(CCc1nc2ccccc2[nH]1)c1ccc(Cl)cc1` is -6.64%.
